Reference: publication PMC4336329 (PLoS ONE, 2015)
Among all 310,000 compounds or so, about 14,000 (4.5%) showed an effect of 50% or more. Effects have a minus sign here. The list shows a part of the results.

What follows are molecules tested against human ether-à-go-go-related gene (hERG) potassium channel (human, UniProt Q12809) (assay: primary screen, population patch clamp on CHO cells stably expressing hERG).
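Also: peak tail current of the secondary pulse compared with the same well before compound.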

human ether-à-go-go-related gene (hERG) potassium channel, sequence (Q12809 whole entry, looked up): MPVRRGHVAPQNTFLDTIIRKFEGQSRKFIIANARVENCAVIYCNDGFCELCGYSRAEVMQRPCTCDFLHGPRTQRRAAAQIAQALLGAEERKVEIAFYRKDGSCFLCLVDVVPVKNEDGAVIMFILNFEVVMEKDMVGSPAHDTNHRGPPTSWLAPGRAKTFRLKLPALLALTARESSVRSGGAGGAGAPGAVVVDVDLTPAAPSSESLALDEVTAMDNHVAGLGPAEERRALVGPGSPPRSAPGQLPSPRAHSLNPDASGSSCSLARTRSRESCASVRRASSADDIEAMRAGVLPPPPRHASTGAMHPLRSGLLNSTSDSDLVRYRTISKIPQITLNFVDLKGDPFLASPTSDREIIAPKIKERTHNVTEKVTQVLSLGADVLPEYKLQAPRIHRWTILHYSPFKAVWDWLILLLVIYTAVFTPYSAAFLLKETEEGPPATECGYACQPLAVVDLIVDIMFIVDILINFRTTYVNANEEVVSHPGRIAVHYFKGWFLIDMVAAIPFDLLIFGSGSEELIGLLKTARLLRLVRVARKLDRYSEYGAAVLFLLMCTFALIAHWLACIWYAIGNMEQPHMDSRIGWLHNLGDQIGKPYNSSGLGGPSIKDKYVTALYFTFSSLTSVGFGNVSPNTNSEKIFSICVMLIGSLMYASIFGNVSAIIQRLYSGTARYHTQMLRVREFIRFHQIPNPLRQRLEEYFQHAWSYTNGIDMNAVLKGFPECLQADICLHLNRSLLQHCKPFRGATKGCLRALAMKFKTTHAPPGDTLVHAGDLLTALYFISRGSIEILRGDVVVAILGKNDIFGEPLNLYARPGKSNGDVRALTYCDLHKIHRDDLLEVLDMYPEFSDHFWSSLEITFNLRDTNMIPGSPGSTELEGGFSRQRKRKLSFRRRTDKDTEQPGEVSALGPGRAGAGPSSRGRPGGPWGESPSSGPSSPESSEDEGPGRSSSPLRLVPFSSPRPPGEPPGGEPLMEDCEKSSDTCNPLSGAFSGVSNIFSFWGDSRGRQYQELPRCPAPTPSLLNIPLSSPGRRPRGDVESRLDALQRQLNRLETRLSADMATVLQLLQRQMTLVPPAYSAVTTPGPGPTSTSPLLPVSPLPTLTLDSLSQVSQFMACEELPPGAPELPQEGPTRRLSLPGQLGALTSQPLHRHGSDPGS

Structure (SMILES) | hERG current change (%, negative = inhibition) at 10uM [%]
Cc1nn(-c2ccccc2)c(C)c1NC(=O)COc1ccc(Cl)cc1Cl | -28.6
Cc1cccc(NC(=O)c2nc[nH]c2C(=O)N2CCC(C)CC2)c1 | 1.29
O=C1SCC(c2ccccc2)=NN1Cc1ccccc1 | 6.54
CCCCN(CC)C(=O)c1cc2c(=O)[nH]c3ccc(C)cc3c2s1 | 8.37
CCOC(=O)/C(C#N)=C1\CCCN1CC(N)=S | 2.57
Clc1ccc(Cn2ccc3ccccc32)cn1 | -5.12
CSCCC(NS(=O)(=O)/C=C/c1ccccc1)C(=O)N1CCC(C)CC1 (stereo not shown) | -36.5
CCN(CC)C(=O)Oc1cc(=O)n2c3c(cccc13)CCC2 | -12.5
O=C(COC(=O)CNS(=O)(=O)/C=C/c1ccccc1)Nc1cc(S(=O)(=O)N2CCCCC2)ccc1Cl | 1.25
CC(C)Cc1nnc(NC(=O)CN2C(=O)NC3(CC(C)CC(C)(C)C3)C2=O)s1 (stereo not shown) | -20.5
NC(=O)c1nsc(C(=O)N(c2ccccc2)C(C(=O)NCc2ccc(F)cc2)c2ccco2)c1N (stereo not shown) | 12.2
CCN(CC)C(=O)CN(c1ccc(Cl)cc1)S(=O)(=O)c1ccccc1 | -21.4
COc1ccc(O)c(/C=N/NC(=O)c2c(C)nnn2-c2nonc2N)c1 | 27.1
CC(=O)c1cc(CN2CCN(C3CCN(C(C)C)CC3)C(CCO)C2)cs1 (stereo not shown) | -3.56
O=C(NCCS(=O)(=O)NC1CCCCC1)c1ccccc1 | -11.9
Cc1c(CCOC(=O)C23CC4CC(CC(C)(C4)C2)C3)sc[n+]1Cc1ccccc1.[Cl-] | -34.5
O=c1cc(CN2CCN(S(=O)(=O)c3ccccc3[N+](=O)[O-])CC2)nc2sccn12 | -53.7
Cc1ccccc1NC(=O)Cn1c(=O)n(CC2CCCO2)c(=O)c2ccccc21 (stereo not shown) | 13
Cl.Nc1cc(Cl)ccc1Oc1ccc(Cl)cc1 | 7.63
CC1CCN(C(=O)CSc2nc3c(c(=O)n2C)SCC3)CC1 | -5.95
Cc1nnc2n(Cc3ccccc3)c(=O)c3c4c(sc3n12)COC(C)(C)C4 | -26.4
CCOc1ccc(C(C)NC(=S)NC2CCCCC2)cc1OCC (stereo not shown) | 10.7

Structure (SMILES) | hERG current change (%, negative = inhibition) at 10uM [%]
CCNS(=O)(=O)c1ccc(CCC(=O)NC2CCCC2)cc1 | 16.2
Cc1ccc(OC(=O)CCC(=O)NC(C)c2ccccc2)cc1 (stereo not shown) | 12.6
CCCCCn1c(C(C)NC(=O)CCC)nc2ccccc21 (stereo not shown) | -48.4
COC(CNC(=O)CNC(=S)N(CCCN1CCOCC1)Cc1cccs1)OC | 6.42
Cc1ccc2nc(NC(=O)c3ccc4ncsc4c3)sc2c1 | 11.7
O=Cc1cccn1-c1ccccc1 | 12.4
Cc1cc(C)c2cc(C(=O)Nc3ccc(C)c(F)c3)[nH]c2c1 | 16.4
C=CCn1c(NCc2ccco2)nc2ccccc21 | -8.07
O=C(NCc1cccs1)C1CCCN(S(=O)(=O)c2cccc3cccnc23)C1 (stereo not shown) | -27.6
CN(C)/C=N/c1sc2c(c1C#N)CC(C)(C)NC2(C)C | 9.17
Cc1onc(-c2ccccc2)c1C(=O)OCC(=O)c1ccccc1 | -8.88
COc1cc2cc(CCOC(=O)c3ccc(C(F)(F)F)cc3)oc(=O)c2cc1OC | -11.4
CCN(CC)CCCNCC(=O)Nc1cc(C)on1.O=C(O)C(=O)O | 8.7
O=C(NC(=S)Nc1ccc(Br)cc1)C1CCCCC1 | 6.84
Cc1cc(NC(=O)c2cccc(C)c2[N+](=O)[O-])no1 | 16.1
Cc1cc(C(F)(F)F)nc(SCC(=O)Nc2cc(C)on2)n1 | 1.87
COc1ccccc1C(=O)Nc1nnc(S(=O)(=O)N2CCOCC2)s1 | 8.62
Cl.NS(=O)(=O)c1ccc(CCNCc2ccccc2OCc2ccc(Cl)cc2)cc1 | -73.1
O=C(Cn1cncn1)NCc1cccc(C(F)(F)F)c1 | 20.8
Cc1nc2cc(C(=O)N3CCc4ccccc43)ccc2n1-c1ccc(F)c(F)c1 | -69.7
O=[N+]([O-])c1ccc(C(O)C(CO)NC(=S)Nc2ccccc2)cc1 (stereo not shown) | -13.6
CC1=Nn2c(nnc2-c2ccc(F)cc2)SC1 | 6.71

Structure (SMILES) | hERG current change (%, negative = inhibition) at 10uM [%]
CN1C(=O)/C(=C/c2cccc(Cl)c2)Sc2ccc(C(=O)NCc3cccnc3)cc21 | -18
Cc1ccc2cccc(OCCCOc3ccccc3CO)c2n1 | -0.581
COCC(C)N1CCC(n2nccc2NC(=O)CCOc2ccccc2)CC1 (stereo not shown) | -3.26
CC(OC(=O)c1ccc2c(c1)OCCO2)C(=O)NC1CCCCC1C (stereo not shown) | -5.05
CCOc1ccc(Oc2nc(N(CC)CC)nc(N3CCOCC3)n2)nn1 | 5.12
Cc1cc2c(C)nc(-c3ccccc3)nc2o1 | -4.28
O=C(N/C(=C/c1cccs1)C(=O)N1CCOCC1)c1cccs1 | -8.41
Cc1ccc(C)c(S(=O)(=O)N2CCCOC2CNC(=O)C(=O)NCCc2ccco2)c1 (stereo not shown) | -2.72
O=C(CNC(=O)c1nc[nH]c1C(=O)NCc1ccccc1)OCc1ccccc1 | -15.4
NS(=O)(=O)c1ccc(NC(=S)N2CCC(Cc3ccccc3)CC2)cc1 | -0.397
CN1C(C)(C)CC(NC(=O)CCC(=O)NC2CC(C)(C)N(C)C(C)(C)C2)CC1(C)C | 1.51
CC1(C)CC(=O)C=C(NCc2ccc(C(=O)O)cc2)C1 | 3.79
CN(C(=O)Oc1ccc(C(=O)c2ccc(Cl)cc2)cc1)c1ccccc1 | 15.4
C=CCOc1c(CNc2cccc(C(=O)O)c2)cccc1OC | -5.45
Cc1ccc(NC(=O)CCn2cccc2)cc1Cl | 11.9
COc1ccccc1/C=C/c1nc(S(=O)(=O)c2ccccc2)c(NCCN(C)C)o1 | -4.99
Cc1ccc(OCCCn2ccnc2)cc1C | -4.22
Cn1nnnc1SCC(=O)Nc1ccc(S(=O)(=O)N2CCOCC2)cc1 | 3.21
Cc1cc2[nH]c(=O)c(=O)[nH]c2cc1S(=O)(=O)NCc1ccccc1 | 22.8
NC(=O)[C@@H]1CCCNc2c(I)cc([N+](=O)[O-])cc2C(=O)N[C@@H](CCCN=C(N)N)C(=O)N[C@@H](CCCN=C(N)N)C(=O)N1 | 9.33
O=C(NCCCn1ccnc1)c1ccccc1Br | -11.9
Oc1ccccc1-[n+]1c(-c2ccccc2)cc(-c2ccccc2)c(O)c1-c1ccccc1.[O-][Cl+3]([O-])([O-])[O-] | 15.1

Structure (SMILES) | hERG current change (%, negative = inhibition) at 10uM [%]
Cc1cccc(NC(=O)CCC(=O)NCCO)c1 | 5.96
CC(=O)N1N=C(c2ccc(C)cc2)OC1c1ccc(C(C)C)cc1 (stereo not shown) | 13.6
O=C(Nc1ccc(O)cc1)c1ccc(NC(=O)c2ccco2)cc1 | 16.5
O=C(CCc1nnc2ccc(NCc3ccco3)nn12)N1CCN(c2ccccc2F)CC1 | -20.5
CCC(CC)C(=O)Nc1nnc(SCC(=O)NC2CCCCC2)s1 | 7.91
O=C1CCCCCN1Cc1nnc(SCc2nc3ccccc3s2)n1-c1ccccn1 | -3.29
O=C(CCC(=O)N1CCOc2ccccc21)N1CCCCC1 | -3.26
Cc1nn(C(C)C(=O)NCCCc2ccccc2)c(=O)c2cc3occc3n12 (stereo not shown) | -24.2
COc1cccc(NS(=O)(=O)NC(=O)c2c[nH]c3ccccc23)c1 | 10.4
O=C(OCCN1C(=O)c2ccccc2C1=O)c1cnccn1 | 9.28
CCC(C(=O)N1CCOCC1)n1nc(C)c2c(C)n(-c3ccccc3)nc2c1=O (stereo not shown) | 7.01
O=C(NCCS(=O)(=O)N1CCN(c2ccccc2)CC1)C1CC1 | 3.93
O=C(c1ccc(Cl)c(S(=O)(=O)N2CCCCCC2)c1)N1CCN(c2ccccc2O)CC1 | -31.4
COc1ccccc1/C=C/C=N/n1c(-c2ccc(Cl)cc2Cl)n[nH]c1=S | 29.2
O=C(Cn1nnc(-c2ccccc2)n1)N1CCN(S(=O)(=O)c2ccc(Cl)cc2)CC1 | 3.96
O=C(NCCCN1CCCC1=O)c1cc(-c2ccc3c(c2)OCO3)nc2ccccc12 | -4.06
COC(=O)c1ccccc1NC(=O)c1nc(S(=O)(=O)Cc2ccccc2)ncc1Cl | 21.2
CCCCN(CC)CCCNC(=O)CN1C(=O)CSc2ccc(S(=O)(=O)N3CCOCC3)cc21 | 20.7
O=C(Nc1ccc(N=Nc2ccccc2)cc1)c1ccccc1Cl | 10
Cc1ccc(-c2noc(C3CCCN(C(=O)c4ccc(C(C)(C)C)cc4)C3)n2)o1 (stereo not shown) | -19.8
CCNNC(=O)C(O)(c1cccc(C)c1)c1cccc(C)c1 | -0.16
O=C(COC(=O)c1ccc(Cl)nc1)NCCC1=CCCCC1 | 6.06
